Measured values taken from PMC4336329 (PLoS ONE, 2015).
The whole screen tested about 310,000 compounds, of which about 2,200 (0.71%) showed an effect of 50% or more. The effect is printed as a negative number. The list shows a part of the results.

Target: human ether-à-go-go-related gene (hERG) potassium channel (human, UniProt Q12809)
Test: primary screen, population patch clamp on CHO cells stably expressing hERG

human ether-à-go-go-related gene (hERG) potassium channel, sequence (Q12809 whole entry, looked up): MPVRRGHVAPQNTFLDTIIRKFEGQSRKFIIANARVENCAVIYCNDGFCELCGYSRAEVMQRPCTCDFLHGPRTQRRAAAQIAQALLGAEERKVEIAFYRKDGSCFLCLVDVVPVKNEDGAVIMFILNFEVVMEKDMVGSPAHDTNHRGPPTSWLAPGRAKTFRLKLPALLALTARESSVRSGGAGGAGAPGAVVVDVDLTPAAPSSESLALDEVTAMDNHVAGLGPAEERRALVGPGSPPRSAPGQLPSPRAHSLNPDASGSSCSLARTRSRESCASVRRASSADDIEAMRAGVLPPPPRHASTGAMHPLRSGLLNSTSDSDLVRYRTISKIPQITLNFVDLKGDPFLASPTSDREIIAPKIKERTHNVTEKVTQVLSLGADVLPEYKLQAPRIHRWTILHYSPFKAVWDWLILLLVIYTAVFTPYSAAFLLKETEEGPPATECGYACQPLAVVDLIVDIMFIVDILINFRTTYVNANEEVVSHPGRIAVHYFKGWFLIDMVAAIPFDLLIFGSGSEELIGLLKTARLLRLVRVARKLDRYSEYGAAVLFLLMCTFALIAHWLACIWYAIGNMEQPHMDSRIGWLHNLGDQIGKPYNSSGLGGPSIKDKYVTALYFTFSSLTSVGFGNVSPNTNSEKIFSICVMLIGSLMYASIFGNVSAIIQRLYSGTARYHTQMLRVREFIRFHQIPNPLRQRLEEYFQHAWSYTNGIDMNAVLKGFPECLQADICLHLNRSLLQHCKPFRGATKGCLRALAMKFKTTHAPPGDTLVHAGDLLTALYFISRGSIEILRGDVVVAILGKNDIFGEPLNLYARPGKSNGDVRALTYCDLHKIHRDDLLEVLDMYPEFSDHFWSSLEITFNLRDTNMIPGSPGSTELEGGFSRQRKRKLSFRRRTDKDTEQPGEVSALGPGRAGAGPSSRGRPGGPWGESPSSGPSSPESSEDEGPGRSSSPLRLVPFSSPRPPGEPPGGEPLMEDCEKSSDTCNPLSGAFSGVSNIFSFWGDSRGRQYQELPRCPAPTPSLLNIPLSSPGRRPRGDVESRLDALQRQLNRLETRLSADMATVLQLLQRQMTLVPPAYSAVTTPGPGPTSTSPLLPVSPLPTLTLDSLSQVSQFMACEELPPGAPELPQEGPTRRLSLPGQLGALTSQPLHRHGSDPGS

Compound	hERG current change (%, negative = inhibition) at 1uM [%]
COc1ccc(OC)c(C(C)NC=O)c1 (stereo not drawn)	19.3
COc1cccc(/C=C/c2ccc3cccc(O)c3n2)c1	13.2
CN(C)/C=C/C(=O)c1cccc([N+](=O)[O-])c1	7.06
N#C/C(=C\C=C\c1ccccc1)C(=O)Nc1ccccc1	2.27
CC1=CC(C)(C)Nc2cc(C)c(C)cc21	1.25
COCCOC(=O)C1=C(C)N=c2s/c(=C\c3cccs3)c(=O)n2C1c1cccs1 (stereo not drawn)	11.4
CN1CCc2nc(SCC(=O)OC(C)(C)C)c(C#N)cc2C1	-5.58
CCC(=O)NC1(C(F)(F)F)C(=O)Nc2c1c(=O)[nH]c(=O)n2Cc1ccco1 (stereo not drawn)	11
Cc1nn(C)cc1CNCc1c(C(=O)N2CCCCC2)nc2c(C)cccn12	8.25
CCOc1cccc(C(=O)Nc2ccncc2)c1	-0.234
Cc1ccc2cc(/C=N/NC(=O)[C@@H]3CCCN3)c(Cl)nc2c1.Cl	10.8
CCOc1ccc(NC(=O)COC(=O)CCC(=O)c2cccs2)cc1	9.54
CSc1nc(N)n2nc(-c3ccc(Cl)cc3)cc2n1	9.98
CCCCNC(=S)NCc1ccc2[nH]c3c(c2c1)CCCC3	10.4
CCOC(=O)c1sc(CS(=O)(=O)c2ccc(Cl)cc2)nc1C	17.3
CCOc1cc(/C=N/NC(=O)C(C)Sc2ccccc2)ccc1O (stereo not drawn)	1.95
CC[C@@]12C(=O)N(c3cccc(C)c3)C(=O)N1[C@H](c1ccc(OC)cc1)[C@@H]1C(=O)N(C(C)(C)C)C(=O)[C@@H]12	10.3
Cc1ccc(NC2=Nc3ccccc3CS2)cc1	11.2
O=C(Nc1cccnc1)c1ccc2ccccc2c1O	6.53
COC(=O)c1cccnc1-n1c(=O)c2cccnc2n(Cc2cccc(C(F)(F)F)c2)c1=O	10.1
COn1c(=O)c(-c2cccc(Br)c2)[n+]([O-])c2ccccc21	15.7
CCOC(=O)c1[nH]c(C)c(C(=O)Nc2ccc(C)c(C)c2)c1C	12.1
O=C(Nc1ccccc1)Nc1cnccn1	8.51

Compound	hERG current change (%, negative = inhibition) at 1uM [%]
CS(=O)(=O)N1CCN(C(=O)NC23CC4CC(CC(C4)C2)C3)CC1	5.46
O=C(NCCS(=O)(=O)N1CCN(c2ccc(F)cc2)CC1)C12CC3CC(CC(C3)C1)C2	4
O=C(NCc1ccc(Cl)cc1)N1CCOCC1	16.4
Cn1c(C(=O)N2CCCC(C(=O)c3ccc(C(F)(F)F)cc3)C2)cc(=O)n(C)c1=O (stereo not drawn)	-35.7
CCO.NCCc1c[nH]c2ccc(C(N)=O)cc12.O=C([O-])/C=C\C(=O)[O-]	11.6
CCN(CC)C(=O)CSC1=Nc2ccccc2C2=NC(Cc3c[nH]c4ccccc34)C(=O)N12 (stereo not drawn)	2.12
CCNC(=S)Nc1cccc(Cl)c1C	7.4
Cc1c(C(=O)NC2CCCc3ccccc32)cccc1[N+](=O)[O-] (stereo not drawn)	16.1
COc1ccc(/C=C/C(=O)OCC(=O)Nc2ccc(Cl)cc2F)cc1S(=O)(=O)N1CCOCC1	10.9
O=C(/C=C/c1ccccc1)NCCc1cnc[nH]1	7.74
CC1=C([N+](=O)[O-])C(c2ccccc2)C2=C(N1)c1ccccc1C2=O (stereo not drawn)	10.1
O=C(Nc1ccc(F)cc1)c1ccc(-n2cncn2)c([N+](=O)[O-])c1	2.63
O=C(CCC(=O)N1CCSc2ccccc21)NCCc1ccccc1	6.96
CCOc1ccccc1NC(=S)N1CCC(NC(=O)C(C)(C)C)CC1	13.6
O=C(O)c1cc(S(=O)(=O)N2CCCCCC2)ccc1Cl	13.8
Cc1ccc(C2NNC(=O)C2NC(=O)c2ccccc2)cc1 (stereo not drawn)	17.3
COc1cc(C(=O)Nc2ccc(Nc3ccccc3)cc2)cc(OC)c1OC	12.6
COc1ccc(CN(C(=O)CN2C(=O)COc3ccccc32)C2CCCC2)c(OC)c1	1.11
O=C(c1ccc2ccccc2c1)N1CCCC1	14.5
COc1ccccc1C(=O)C1CCCN(C(=O)c2ccc3c(c2)OCCO3)C1 (stereo not drawn)	5.75
Cn1nnnc1SCC(=O)Nc1ccccc1Cc1ccccc1	5.75
Cc1sc2ncn(CC(=O)NCCCC(=O)N3CCC(C(N)=O)CC3)c(=O)c2c1C	19.4
